The list shows a part of the results. The full chains were built here from the parent and the listed change. Inactive controls read about 0.05.
B1: TEV protease; numbered along this chain (parent)
chain: MGESLFKGPRDYNPISSSICHLTNESDGHTTSLYGIGFGPFIITNKHLFRRNNGTLVVQSLHGVFKVKDTTTLQQHLVDGRDMIIIRMPKDFPPFPQKLKFREPQREERICLVTTNFQTKSMSSMVSDTSCTFPSGDGIFWKHWIQTKDGQCGSPLVSTRDGFIVGIHSASNFTNTNNYFTSVPKNFMELLTNQEAQQWVSGWRLNADSVLWGGHKVFMVKPEEPFQPVKEATQL

Variants of: B1
Test: raw area under fraction-flipped curve 0-4 h after induction (AUC4h, not background-subtracted), DNA-recorder readout of cleavage of the substrate (dimensionless); higher = more cleavage of the substrate by the protease variant
Settings: temperature: 34 °C; time window: 0-4 h after rhamnose induction
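Also: Bxb1 expression induced with 0.2% (w/v) L-rhamnose at OD600 near 0.5, cultures sampled hourly, flipped fraction per protease–substrate barcode pair counted by paired-end Illumina sequencing.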

## MGESLFKGPRDYNPISSSICHLTNESDGHTTSLYGIGFGPFIITNKHLFRRNNGTLVVQSLHGVFKVKDTTTLQQHLVDGRDMIIIRMPKDFPPFPQKLKFREPQREERICLVTTNFQTKSMSSMVSDTSCTFPSGDGIFWKHWIQTKDGQCGSPLVSTRDGFIVGIHSASNFTNTNNYFTSVPKNFMELLTNQEAQQWVSGWRLNADSVLWGGHKVFMVKPEEPFQPVKCATQL [E231C]
  area with substrate ENLYFQC: 0.162
  area with substrate ENLYFQD: 0.072
  area with substrate ENLYFQG: 0.0726
  area with substrate ENLYFQI: 0.0555
  area with substrate ENLYFQK: 0.0626
  area with substrate ENLYFQL: 0.0746
  area with substrate ENLYFQM: 0.0999
  area with substrate ENLYFQP: 0.0431
  area with substrate ENLYFQS: 0.0966
  area with substrate ENLYFQT: 0.0414
  area with substrate ENLYFQV: 0.0674
  area with substrate ENLYFQW: 0.0693
  area with substrate ENLYFQY: 0.074

## MGESLFKGPRDYNPISSSICHLTNESDGHTTSLYGIGFGPFIITNKHLFRRNNGTLVVQSLHGVFKVKDTTTLQQHLVDGRDMIIIRMPKDFPPFPQKLKFREPQREERICLVTTNFQTKSMSSMVSDTSCTFPSGDGIFWKHWIQTKDGQCGSPLVSTRDGFIVGIHSASNFTNTNNYNTSVPKNFMELLTNQEAQQWVSGWRLNADSVLWGGHKVFMVKPEEPFQPVKEATQL [F180N]
  area with substrate ENLYFQC: 0.0611
  area with substrate ENLYFQF: 0.0403
  area with substrate ENLYFQG: 0.064
  area with substrate ENLYFQL: 0.0636
  area with substrate ENLYFQM: 0.0448
  area with substrate ENLYFQN: 0.0523
  area with substrate ENLYFQP: 0.0408
  area with substrate ENLYFQR: 0.0339
  area with substrate ENLYFQS: 0.0535
  area with substrate ENLYFQT: 0.043
  area with substrate ENLYFQV: 0.0628
  area with substrate ENLYFQW: 0.0417
  area with substrate ENLYFQY: 0.0482

## MGESLFKGPRDYNPISSSICHLTNESDGHTTSLYGIGFGPFIITNKHLFRRNNGTLVVQSLHGVFKVKDTTTLQQHLVDGRDMIIIRMPKDFPPFPQKLKFREPQREERICLVTTNFQTKSMSSMVSDTSCTFPSGDGIFWKHWIQTKDGQCGSPLVSTRDGFIVGIHSASNFTNTNNYFTSVPKNFMELLTNQEAQQWVRGWRLNADSVLWGGHKVFMVKPEEPFQPVKEATQL [S201R]
  area with substrate ENLYFQC: 0.0607
  area with substrate ENLYFQH: 0.107
  area with substrate ENLYFQI: 0.0538
  area with substrate ENLYFQK: 0.0736
  area with substrate ENLYFQL: 0.0562
  area with substrate ENLYFQM: 0.104
  area with substrate ENLYFQN: 0.0739
  area with substrate ENLYFQS: 0.101
  area with substrate ENLYFQW: 0.0789
  area with substrate ENLYFQY: 0.0652

## MGESLFKGPRDYNPISSSICHLTNESDGHTTSLYGIGFGPFIITNKHLFRRNNGTLVVQSLHGVFKVKDTTTLQQHLVDGRDMIIIRMPKDFPPFPQKLKFREPQREERICLVTTNFQTKSMSSMVSDTSCTFPSGDGIFWKHWIQTKDGQCGSPLVSTRDGFIVGIHSAMNFTNTNNYFTSVPKNFMELLTNQEAQQWVSGWRLNADSVLWGGHKVFMVKPEEPFQPVKEATQL [S171M]
  area with substrate ENLYFQC: 0.0663
  area with substrate ENLYFQD: 0.0589
  area with substrate ENLYFQF: 0.0558
  area with substrate ENLYFQG: 0.0784
  area with substrate ENLYFQH: 0.0559
  area with substrate ENLYFQI: 0.0522
  area with substrate ENLYFQK: 0.0622
  area with substrate ENLYFQL: 0.0965
  area with substrate ENLYFQM: 0.0683
  area with substrate ENLYFQN: 0.0584
  area with substrate ENLYFQQ: 0.0813
  area with substrate ENLYFQR: 0.0601
  area with substrate ENLYFQS: 0.0614
  area with substrate ENLYFQT: 0.0453
  area with substrate ENLYFQV: 0.043
  area with substrate ENLYFQW: 0.0593
  area with substrate ENLYFQY: 0.0604

## MGESLFKGPRDYNPISSSICHLTNESDGHTTSLYGIGFGPFIITNKHLFRRNNGTLVVQSLHGVFKVKDTTTLQQHLVDGRDMIIIRMPKDFPPFPQKLKFREPQREERICLVTTNFQTKSMSSMVSDTSCTFPSGDGIFWKHWIQTKDGQCGSPLVSTRDGFIVGIHSAFNFTNTNNYFTSVPKNFMELLTNQEAQQWVSGWRLNADSVLWGGHKVFMVKPEEPFQPVKEATQL [S171F]
  area with substrate ENLYFQC: 0.0569
  area with substrate ENLYFQG: 0.09
  area with substrate ENLYFQI: 0.0611
  area with substrate ENLYFQK: 0.0478
  area with substrate ENLYFQN: 0.0666
  area with substrate ENLYFQP: 0.065
  area with substrate ENLYFQR: 0.0654
  area with substrate ENLYFQS: 0.0597
  area with substrate ENLYFQT: 0.0593
  area with substrate ENLYFQV: 0.0422
  area with substrate ENLYFQW: 0.0712

## MGESLFKGPRDYNPISSSICHLTNESDGHTTSLYGIGFGPFIITNKHLFRRNNGTLVVQSLHGVFKVKDTTTLQQHLVDGRDMIIIRMPKDFPPFPQKLKFREPQREERICLVTTNFQTKSMSSMVSDTSCTFPSGDGIFWKHWIQTKDGQCGSPQVSTRDGFIVGIHSASNFTNTNNYFTSVPKNFMELLTNQEAQQWVSGWRLNADSVLWGGHKVFMVKPEEPFQPVKEATQL [L156Q]
  area with substrate ENLYFQC: 0.0539
  area with substrate ENLYFQD: 0.0551
  area with substrate ENLYFQF: 0.0357
  area with substrate ENLYFQH: 0.0369
  area with substrate ENLYFQI: 0.0487
  area with substrate ENLYFQK: 0.0528
  area with substrate ENLYFQL: 0.0295
  area with substrate ENLYFQN: 0.0518
  area with substrate ENLYFQR: 0.0486
  area with substrate ENLYFQS: 0.0559
  area with substrate ENLYFQT: 0.0526
  area with substrate ENLYFQV: 0.0533
  area with substrate ENLYFQW: 0.0456
  area with substrate ENLYFQY: 0.0609

## MGESLFKGPRDYNPISSSICHLTNESDGHTTSLYGIGFGPFIITNKHLFRRNNGTLVVQSLHGVFKVKDTTTLQQHLVDGRDMIIIRMPKDFPPFPQKLKFREPQREERICLVTTNFQTKSMSSMVSDTSCTFPSGDGIFWKHWIQTKDGQCGSPLVSTRDGFIVGIHSASNFTNTNNYFTSVPKNFMELLTNQEAQQWVSGWRLNADSVLWGGHKVFMVKDEEPFQPVKEATQL [P222D]
  area with substrate ENLYFQC: 0.126
  area with substrate ENLYFQE: 0.0667
  area with substrate ENLYFQG: 0.0649
  area with substrate ENLYFQH: 0.086
  area with substrate ENLYFQI: 0.0663
  area with substrate ENLYFQK: 0.0675
  area with substrate ENLYFQL: 0.0471
  area with substrate ENLYFQM: 0.0711
  area with substrate ENLYFQN: 0.079
  area with substrate ENLYFQP: 0.0721
  area with substrate ENLYFQQ: 0.0602
  area with substrate ENLYFQR: 0.0654
  area with substrate ENLYFQS: 0.105
  area with substrate ENLYFQT: 0.0622
  area with substrate ENLYFQV: 0.0806
  area with substrate ENLYFQW: 0.0703

## MGESLFKGPRDYNPISSSICHLTNESDGHTTSLYGIGFGPFIITNKHLFRRNNGTLVVQSLHGVFKVKDTTTLQQHLVDGRDMIIIRMPKDFPPFPQKLKFREPQREERICLVTTNFQTKSMSSMVSDTSCTFPSGDGIFWKHWIQTKDGQCGSPLVSTRDGFIVGIHSASNFTNTNNYFTSVPKNFMELATNQEAQQWVSGWRLNADSVLWGGHKVFMVKPEEPFQPVKEATQL [L191A]
  area with substrate ENLYFQC: 0.0797
  area with substrate ENLYFQG: 0.0645
  area with substrate ENLYFQH: 0.0696
  area with substrate ENLYFQL: 0.0529
  area with substrate ENLYFQM: 0.054
  area with substrate ENLYFQN: 0.0234
  area with substrate ENLYFQR: 0.0577
  area with substrate ENLYFQS: 0.076
  area with substrate ENLYFQT: 0.0566
  area with substrate ENLYFQW: 0.0456
  area with substrate ENLYFQY: 0.0687

## MGESLFKGPRDYNPISSSICHLTNESDGHTTSLYGIGFGPFIITNKHLFRRNNGTLVVQSLHGVFKVKDTTTLQQHLVDGRDMIIIRMPKDFPPFPQKLKFREPQREERICLVTTNFQTKSMSSMVSDTSCTFPSGDGIFWKHWIQTKDGQCGSPLVSTRDGFIVGIHSASNFTNTNNYFTSVPKNFMELLTNQEAQQWVSGWRLNADSVLWGGHKVFMVKPEEPFLPVKEATQL [Q227L]
  area with substrate ENLYFQC: 0.118
  area with substrate ENLYFQD: 0.0693
  area with substrate ENLYFQG: 0.101
  area with substrate ENLYFQI: 0.0578
  area with substrate ENLYFQK: 0.0699
  area with substrate ENLYFQL: 0.0746
  area with substrate ENLYFQM: 0.0797
  area with substrate ENLYFQN: 0.0813
  area with substrate ENLYFQP: 0.0603
  area with substrate ENLYFQR: 0.0492
  area with substrate ENLYFQS: 0.0997
  area with substrate ENLYFQT: 0.0674
  area with substrate ENLYFQV: 0.0624
  area with substrate ENLYFQY: 0.063

— the supplement of paper PMC12217912
